According to paper PMC4336329 (PLoS ONE, 2015):
In all, about 310,000 compounds went through this assay and about 14,000 (4.5%) showed an effect of 50% or more. Effects have a minus sign here. The list shows a part of the results.
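Also: peak tail current of the secondary pulse compared with the same well before compound.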

The compounds below were run against human ether-à-go-go-related gene (hERG) potassium channel (human, UniProt Q12809) (assay: primary screen, population patch clamp on CHO cells stably expressing hERG).
Chain of human ether-à-go-go-related gene (hERG) potassium channel (Q12809 whole entry, looked up): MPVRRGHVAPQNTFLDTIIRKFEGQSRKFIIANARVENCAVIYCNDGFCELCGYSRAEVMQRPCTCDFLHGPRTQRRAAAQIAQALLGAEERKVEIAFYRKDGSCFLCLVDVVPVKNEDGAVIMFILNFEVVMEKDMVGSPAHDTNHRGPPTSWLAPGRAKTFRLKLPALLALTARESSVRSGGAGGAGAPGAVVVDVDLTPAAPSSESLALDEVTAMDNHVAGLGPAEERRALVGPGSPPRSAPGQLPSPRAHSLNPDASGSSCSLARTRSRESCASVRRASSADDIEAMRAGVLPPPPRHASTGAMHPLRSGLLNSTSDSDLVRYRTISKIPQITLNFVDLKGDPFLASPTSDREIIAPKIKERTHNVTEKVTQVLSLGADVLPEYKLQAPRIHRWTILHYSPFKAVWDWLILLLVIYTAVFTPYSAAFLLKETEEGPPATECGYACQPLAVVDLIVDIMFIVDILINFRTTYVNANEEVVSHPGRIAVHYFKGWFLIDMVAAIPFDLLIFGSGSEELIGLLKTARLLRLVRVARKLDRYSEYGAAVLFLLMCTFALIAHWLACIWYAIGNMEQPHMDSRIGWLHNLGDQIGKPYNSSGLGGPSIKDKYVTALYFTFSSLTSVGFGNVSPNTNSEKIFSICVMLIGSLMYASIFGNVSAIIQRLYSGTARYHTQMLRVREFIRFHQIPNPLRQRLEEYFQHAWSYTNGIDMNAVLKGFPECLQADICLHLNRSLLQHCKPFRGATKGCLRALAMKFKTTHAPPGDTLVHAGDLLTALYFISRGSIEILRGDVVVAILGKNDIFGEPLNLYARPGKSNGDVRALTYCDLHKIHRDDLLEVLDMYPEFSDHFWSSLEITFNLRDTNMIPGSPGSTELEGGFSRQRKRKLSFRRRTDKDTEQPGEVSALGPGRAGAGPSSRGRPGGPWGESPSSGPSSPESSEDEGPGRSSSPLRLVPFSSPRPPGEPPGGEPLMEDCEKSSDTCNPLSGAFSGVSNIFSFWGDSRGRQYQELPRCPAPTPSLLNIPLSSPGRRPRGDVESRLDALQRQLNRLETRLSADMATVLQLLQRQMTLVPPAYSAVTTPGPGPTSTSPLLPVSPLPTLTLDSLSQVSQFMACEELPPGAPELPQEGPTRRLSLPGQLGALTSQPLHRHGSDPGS
`O=S(=O)(/N=C(/Nc1cc(N2CCOCC2)ncn1)c1ccc(F)cc1)c1ccccc1` was tested, and the “hERG current change (%, negative = inhibition) at 10uM” value was 0.844%.
`CCCN1CCN(C(=O)CCS(=O)(=O)c2cc3c(cc2Cl)NC(=O)CO3)CC1` was tested, and the “hERG current change (%, negative = inhibition) at 10uM” value was -48%.
In the case of `Cc1ccsc1C(=O)N(C)CC(=O)N(CC(C)C)c1c(N)n(CC(C)C)c(=O)[nH]c1=O`, the “hERG current change (%, negative = inhibition) at 10uM” value was -1.64%.
With `O=C(O)c1ccn[nH]1` the “hERG current change (%, negative = inhibition) at 10uM” value was -0.906%.
In the case of `O=C(COc1coc(CN2CCc3ccccc3C2)cc1=O)Nc1ccc([N+](=O)[O-])cc1`, the “hERG current change (%, negative = inhibition) at 10uM” value was -31.7%.
`c1ccc(-n2ncc3c2ncn2nc(-c4ccco4)nc32)cc1` was tested, and the “hERG current change (%, negative = inhibition) at 10uM” value was 13.3%.
With `O=C(COc1ccccc1)N(Cc1cccs1)C1CCS(=O)(=O)C1` (centres unmarked) the “hERG current change (%, negative = inhibition) at 10uM” value was -17.4%.
In the case of `O=C(Nn1cnc2ccccc2c1=O)c1c(F)cccc1F`, the “hERG current change (%, negative = inhibition) at 10uM” value was 25.8%.
`Cc1nc(-c2nc(-c3c(C(=O)NNC(=O)c4ccc(Cl)cc4)noc3C)cs2)cs1` was tested, and the “hERG current change (%, negative = inhibition) at 10uM” value was -35.1%.
With `CCN1/C(=C2\OC(=S)N(C)C2=O)Sc2ccccc21` the “hERG current change (%, negative = inhibition) at 10uM” value was -2.13%.
`COc1ccccc1/C=C/C(=O)OCC(=O)NCc1ccco1` was tested, and the “hERG current change (%, negative = inhibition) at 10uM” value was 1.61%.
For `CC1CC(C)CN(C(=O)C2CCC(CNc3c(N4CCCCC4)c(=O)c3=O)CC2)C1` (centres unmarked), the “hERG current change (%, negative = inhibition) at 10uM” value was 3.42%.
With `COc1cc(/C=N/n2c(C)n[nH]c2=S)ccc1OCc1ccccc1` the “hERG current change (%, negative = inhibition) at 10uM” value was 5.01%.
For `COc1ccc(N(C)S(=O)(=O)c2c(C)noc2C)c(OC)c1`, the “hERG current change (%, negative = inhibition) at 10uM” value was 8.45%.
With `CC1(C)CC(=O)C2=C(C1)N(c1cccnc1)C(N)=C(C#N)C2c1cccs1` (centres unmarked) the “hERG current change (%, negative = inhibition) at 10uM” value was -5.86%.
`COc1cccc2c(=O)n(CC(=O)N3CCC(C)CC3)ccc12` was tested, and the “hERG current change (%, negative = inhibition) at 10uM” value was -6.17%.
For `CCOC(=O)c1cc2c(=O)[nH]ccc2nc1C`, the “hERG current change (%, negative = inhibition) at 10uM” value was 13%.
`Cc1ccc(C)c(-n2cc(CNCCCn3cccn3)c(-c3ccccc3)n2)c1` was tested, and the “hERG current change (%, negative = inhibition) at 10uM” value was -64.9%.
`CCOC(=O)C1(CCCc2ccccc2)CCN(Cc2cnc(C)s2)CC1` was tested, and the “hERG current change (%, negative = inhibition) at 10uM” value was -73.1%.
In the case of `CCCS(=O)(=O)c1c(S(=O)(=O)CCC)c2cnccn2c1C(=O)c1ccc(F)cc1`, the “hERG current change (%, negative = inhibition) at 10uM” value was -6.13%.
In the case of `O=C(NNC(=O)c1ccccc1F)c1ccc(-c2ccc(Cl)cc2)o1`, the “hERG current change (%, negative = inhibition) at 10uM” value was -14.2%.
With `Cn1c(CNC2CCCCC2)c(C#N)c2ccccc21` the “hERG current change (%, negative = inhibition) at 10uM” value was -7.39%.
`O=C(c1ccccc1)N1CCN(CC(O)COc2ccc(Br)cc2)CC1` (centres unmarked) was tested, and the “hERG current change (%, negative = inhibition) at 10uM” value was -64.9%.
`N#Cc1c(Nc2ccccc2)s[nH]c1=O` was tested, and the “hERG current change (%, negative = inhibition) at 10uM” value was 12.5%.
With `Cc1[nH]c2ccccc2c1/C=N\NC(=O)CNc1ccc2c(c1)OCO2` the “hERG current change (%, negative = inhibition) at 10uM” value was 2.88%.
For `CC(C)N(Cc1cnn(C)c1)Cc1nc(COc2ccccc2)no1`, the “hERG current change (%, negative = inhibition) at 10uM” value was 2.96%.
In the case of `CCOC(=O)CNC(=O)C1Cc2ccccc2CN1S(=O)(=O)c1cccs1` (centres unmarked), the “hERG current change (%, negative = inhibition) at 10uM” value was 4.79%.
With `CN1CCN(S(=O)(=O)c2ccc(Br)c3ccccc23)CC1` the “hERG current change (%, negative = inhibition) at 10uM” value was -6.71%.
`CCOc1ccccc1C1C(C(N)=O)=C(C)Nc2nc(CCCO)nn21` (centres unmarked) was tested, and the “hERG current change (%, negative = inhibition) at 10uM” value was 18.4%.
In the case of `NC(=O)c1c(NC(=O)COC(=O)c2ccc(S(=O)(=O)Nc3ccccc3)cc2)sc2c1CCCC2`, the “hERG current change (%, negative = inhibition) at 10uM” value was 13.6%.
For `COc1ccccc1/C=C1\SC(=O)N(CC(=O)NCCCn2ccnc2)C1=O`, the “hERG current change (%, negative = inhibition) at 10uM” value was -3.76%.
In the case of `CC(C)C[C@H](NC(=O)OC(C)(C)C)C(=O)N/N=C/C1=Cc2ccccc2OC1C` (some centres unmarked), the “hERG current change (%, negative = inhibition) at 10uM” value was -0.94%.
With `O=S(=O)(c1ccc(SCCOc2ccccc2)nc1)N1CCCC1` the “hERG current change (%, negative = inhibition) at 10uM” value was -16.8%.
For `CCc1c(C)nc2cc(-c3ccc(OC)c(OC)c3)nn2c1N1CCC(C)CC1`, the “hERG current change (%, negative = inhibition) at 10uM” value was 21%.
In the case of `CCCCC(=O)Nc1nc2ccc3nc(C)sc3c2s1`, the “hERG current change (%, negative = inhibition) at 10uM” value was 9.37%.
For `Cc1noc(C)c1CN1C(=O)c2ccccc2C1=O`, the “hERG current change (%, negative = inhibition) at 10uM” value was 13.6%.
`N#CC1=C2SCN(c3ccccc3)CN2C(=O)CC1c1cccs1` (centres unmarked) was tested, and the “hERG current change (%, negative = inhibition) at 10uM” value was 11.2%.
With `O=C(CSc1nnc(CNc2ccc(F)cc2)o1)N1CCCc2ccccc21` the “hERG current change (%, negative = inhibition) at 10uM” value was 2.24%.
In the case of `COc1ccc(CN2C(=O)C(C)N(C(=O)c3c(F)cccc3F)c3ccccc32)cc1` (centres unmarked), the “hERG current change (%, negative = inhibition) at 10uM” value was 28.7%.
With `O=C(CCC(=O)Nc1ccccc1)NNC(=O)c1ccco1` the “hERG current change (%, negative = inhibition) at 10uM” value was 8.99%.
In the case of `CC(=O)c1cccc(N2C(=O)C3C(C(=O)Nc4cc(C)on4)C4(C)C=CC3(O4)C2C(=O)NC(C)(C)C)c1` (centres unmarked), the “hERG current change (%, negative = inhibition) at 10uM” value was 6%.
For `COc1ccc(S(=O)(=O)NNC(=O)Nc2ccc(C)cc2)c(OC)c1`, the “hERG current change (%, negative = inhibition) at 10uM” value was -20.9%.
In the case of `CC(NC(=O)CCc1nnc(C2CCCCC2)o1)c1ccc(F)cc1` (centres unmarked), the “hERG current change (%, negative = inhibition) at 10uM” value was 14.9%.
With `CCOC(=O)/C=C/COc1ccccc1[N+](=O)[O-]` the “hERG current change (%, negative = inhibition) at 10uM” value was 2.48%.
`Cc1ccccc1NC(=O)NNC(=O)OC(C)(C)C` was tested, and the “hERG current change (%, negative = inhibition) at 10uM” value was -6.37%.
`Cc1cc(C)n(-c2ccc(C(=O)OCc3nnc(-c4ccccc4)o3)cc2)n1` was tested, and the “hERG current change (%, negative = inhibition) at 10uM” value was 10%.
`COc1ccc(CCNc2nc(-c3ccc(O)cc3)cs2)cc1OC` was tested, and the “hERG current change (%, negative = inhibition) at 10uM” value was 4.8%.
For `COc1ccc(S(=O)(=O)NCC2CCCO2)cc1NC(=O)c1ccc(Cl)cc1` (centres unmarked), the “hERG current change (%, negative = inhibition) at 10uM” value was -54%.
`COC(=O)CCN(C(=O)c1cccc([N+](=O)[O-])c1)c1ccccn1` was tested, and the “hERG current change (%, negative = inhibition) at 10uM” value was -0.262%.
In the case of `O=C(NCc1ccncc1)C1COc2ccccc2O1` (centres unmarked), the “hERG current change (%, negative = inhibition) at 10uM” value was -6.92%.
For `O=C(Cc1ccc(F)cc1)Nc1nnc(-c2ccc(F)cc2)o1`, the “hERG current change (%, negative = inhibition) at 10uM” value was 10.9%.
`COCCN(CC(=O)Nc1cc(Cl)ccc1-n1cncn1)Cc1nc2ccccc2c(=O)[nH]1` was tested, and the “hERG current change (%, negative = inhibition) at 10uM” value was -43%.
With `COc1ccc(C)cc1N(CC(=O)N1CCOCC1)S(C)(=O)=O` the “hERG current change (%, negative = inhibition) at 10uM” value was 21.2%.
In the case of `CCOC(=O)CN(c1cc([N+](=O)[O-])ccc1OC)S(C)(=O)=O`, the “hERG current change (%, negative = inhibition) at 10uM” value was 14.1%.
For `CCN(CC)CCNc1nc(-c2cccs2)c(CC(=O)O)s1.O=C(O)C(=O)O`, the “hERG current change (%, negative = inhibition) at 10uM” value was 24.1%.
For `COc1cccc(CNC(=O)CSc2ccc(-c3ccco3)nn2)c1`, the “hERG current change (%, negative = inhibition) at 10uM” value was 2.15%.
